Reference: PMC4705382
These are yes or no findings as the source states them, for the method shown. In cells and extracts the contact can be indirect. Some entries that bind do so weakly or less than the wild type. Sequences can lack the tags named with a protein.

Chains of the proteins cited; added tags and fusions are not shown.
UniProt Q8IXI2: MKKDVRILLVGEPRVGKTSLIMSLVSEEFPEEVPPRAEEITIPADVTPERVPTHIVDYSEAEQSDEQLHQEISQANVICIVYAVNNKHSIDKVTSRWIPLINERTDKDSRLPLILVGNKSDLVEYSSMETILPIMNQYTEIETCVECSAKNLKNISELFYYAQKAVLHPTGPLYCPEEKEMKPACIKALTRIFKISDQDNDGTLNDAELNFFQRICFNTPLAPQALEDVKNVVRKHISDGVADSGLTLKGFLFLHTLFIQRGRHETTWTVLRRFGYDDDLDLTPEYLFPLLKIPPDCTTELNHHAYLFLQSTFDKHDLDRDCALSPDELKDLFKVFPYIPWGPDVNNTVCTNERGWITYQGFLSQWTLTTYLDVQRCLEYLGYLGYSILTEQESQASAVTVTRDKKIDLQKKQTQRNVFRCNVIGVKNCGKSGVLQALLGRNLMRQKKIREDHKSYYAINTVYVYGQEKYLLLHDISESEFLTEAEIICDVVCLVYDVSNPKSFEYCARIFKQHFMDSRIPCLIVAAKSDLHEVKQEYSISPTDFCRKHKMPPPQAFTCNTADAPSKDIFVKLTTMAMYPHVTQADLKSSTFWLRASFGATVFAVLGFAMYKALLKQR
UniProt Q8IXI1: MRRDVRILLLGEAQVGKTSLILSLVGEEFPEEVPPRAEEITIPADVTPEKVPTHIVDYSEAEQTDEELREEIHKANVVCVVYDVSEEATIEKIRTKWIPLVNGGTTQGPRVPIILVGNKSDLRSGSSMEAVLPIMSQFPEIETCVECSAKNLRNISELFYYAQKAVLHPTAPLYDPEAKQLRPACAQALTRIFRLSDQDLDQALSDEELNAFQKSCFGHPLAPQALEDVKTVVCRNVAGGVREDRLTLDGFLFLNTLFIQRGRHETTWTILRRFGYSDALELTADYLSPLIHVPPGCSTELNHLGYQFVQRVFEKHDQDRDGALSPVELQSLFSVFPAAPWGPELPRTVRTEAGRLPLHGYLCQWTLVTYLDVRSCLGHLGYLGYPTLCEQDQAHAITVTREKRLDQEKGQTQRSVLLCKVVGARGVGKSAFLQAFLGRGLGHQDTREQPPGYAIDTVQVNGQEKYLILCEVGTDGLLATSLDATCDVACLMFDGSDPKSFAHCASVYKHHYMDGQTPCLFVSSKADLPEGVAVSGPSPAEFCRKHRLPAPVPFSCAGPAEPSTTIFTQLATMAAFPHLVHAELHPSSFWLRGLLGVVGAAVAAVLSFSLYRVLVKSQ

Assays:
Assay in all cases: co-IP; GFP trap beads (Chromotek) on lysates of co-transfected COS7 cells; lysis buffer 50 mM HEPES pH 7.5, 0.5% Triton X-100, 150 mM NaCl, 1 mM EDTA; Western blot
^GFPMiro1 = ^GFPMiro1 (UniProt Q8IXI2)
^GFPMiro2 = ^GFPMiro2 (UniProt Q8IXI1)
^GFPTRAK1 (mouse) = target: T1, ^GFPTRAK1 (mouse) (UniProt Q6PD31)
T1 sequence: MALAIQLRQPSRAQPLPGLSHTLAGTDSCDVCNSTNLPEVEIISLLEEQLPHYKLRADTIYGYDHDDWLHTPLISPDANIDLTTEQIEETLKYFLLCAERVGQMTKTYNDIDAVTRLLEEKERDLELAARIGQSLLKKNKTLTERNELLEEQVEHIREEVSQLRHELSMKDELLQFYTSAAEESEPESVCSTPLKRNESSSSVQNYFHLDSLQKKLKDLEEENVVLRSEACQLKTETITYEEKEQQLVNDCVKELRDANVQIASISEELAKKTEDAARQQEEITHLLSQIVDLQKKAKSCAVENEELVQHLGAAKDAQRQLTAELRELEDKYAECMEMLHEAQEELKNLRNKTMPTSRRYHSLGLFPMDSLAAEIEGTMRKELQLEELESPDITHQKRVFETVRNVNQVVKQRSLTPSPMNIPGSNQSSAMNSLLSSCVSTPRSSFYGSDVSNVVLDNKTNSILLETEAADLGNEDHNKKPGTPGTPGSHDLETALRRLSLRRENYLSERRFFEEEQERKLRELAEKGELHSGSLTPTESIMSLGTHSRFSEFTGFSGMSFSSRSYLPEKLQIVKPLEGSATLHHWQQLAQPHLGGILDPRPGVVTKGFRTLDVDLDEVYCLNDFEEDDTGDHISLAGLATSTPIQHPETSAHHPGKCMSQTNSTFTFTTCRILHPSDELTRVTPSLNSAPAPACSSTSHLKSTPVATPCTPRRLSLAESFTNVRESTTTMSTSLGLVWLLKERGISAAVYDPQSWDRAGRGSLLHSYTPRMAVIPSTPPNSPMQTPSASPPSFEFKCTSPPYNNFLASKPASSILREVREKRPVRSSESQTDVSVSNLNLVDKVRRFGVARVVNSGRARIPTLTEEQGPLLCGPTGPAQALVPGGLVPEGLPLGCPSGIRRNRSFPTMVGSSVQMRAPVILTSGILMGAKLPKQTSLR

^GFPTRAK2 (mouse) = target: T2, ^GFPTRAK2 (mouse) (UniProt Q6P9N8)
T2 sequence: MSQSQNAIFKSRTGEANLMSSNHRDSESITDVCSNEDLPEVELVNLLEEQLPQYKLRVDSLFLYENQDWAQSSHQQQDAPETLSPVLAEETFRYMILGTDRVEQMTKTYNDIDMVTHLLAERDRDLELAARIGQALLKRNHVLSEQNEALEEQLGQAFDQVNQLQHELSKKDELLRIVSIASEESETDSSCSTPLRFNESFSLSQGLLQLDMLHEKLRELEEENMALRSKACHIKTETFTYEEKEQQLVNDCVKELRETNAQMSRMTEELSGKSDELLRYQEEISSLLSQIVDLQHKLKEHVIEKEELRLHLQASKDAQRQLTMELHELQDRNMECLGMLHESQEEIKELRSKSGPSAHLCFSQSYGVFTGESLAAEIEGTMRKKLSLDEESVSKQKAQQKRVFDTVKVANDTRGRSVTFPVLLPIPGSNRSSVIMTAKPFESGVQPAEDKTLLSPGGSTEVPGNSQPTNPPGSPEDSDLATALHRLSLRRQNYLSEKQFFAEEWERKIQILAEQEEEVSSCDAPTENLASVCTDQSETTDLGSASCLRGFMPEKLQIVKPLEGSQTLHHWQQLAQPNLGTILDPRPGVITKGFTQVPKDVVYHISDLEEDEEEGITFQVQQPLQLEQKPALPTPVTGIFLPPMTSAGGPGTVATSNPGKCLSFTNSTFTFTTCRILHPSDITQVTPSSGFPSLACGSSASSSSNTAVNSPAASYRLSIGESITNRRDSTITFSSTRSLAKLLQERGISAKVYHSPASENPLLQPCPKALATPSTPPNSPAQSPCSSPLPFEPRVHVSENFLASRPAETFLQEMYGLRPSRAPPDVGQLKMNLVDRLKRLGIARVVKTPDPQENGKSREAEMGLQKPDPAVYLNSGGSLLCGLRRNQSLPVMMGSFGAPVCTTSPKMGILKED

Measured: binding

B1: Untagged human DISC1 (protein, UniProt Q9NRI5 1-854)
chain: MPGGGPQGAPAAAGGGGVSHRAGSRDCLPPAACFRRRRLARRPGYMRSSTGPGIGFLSPAVGTLFRFPGGVSGEESHHSESRARQCGLDSRGLLVRSPVSKSAAAPTVTSVRGTSAHFGIQLRGGTRLPDRLSWPCGPGSAGWQQEFAAMDSSETLDASWEAACSDGARRVRAAGSLPSAELSSNSCSPGCGPEVPPTPPGSHSAFTSSFSFIRLSLGSAGERGEAEGCPPSREAESHCQSPQEMGAKAASLDGPHEDPRCLSRPFSLLATRVSADLAQAARNSSRPERDMHSLPDMDPGSSSSLDPSLAGCGGDGSSGSGDAHSWDTLLRKWEPVLRDCLLRNRRQMEVISLRLKLQKLQEDAVENDDYDKAETLQQRLEDLEQEKISLHFQLPSRQPALSSFLGHLAAQVQAALRRGATQQASGDDTHTPLRMEPRLLEPTAQDSLHVSITRRDWLLQEKQQLQKEIEALQARMFVLEAKDQQLRREIEEQEQQLQWQGCDLTPLVGQLSLGQLQEVSKALQDTLASAGQIPFHAEPPETIRSLQERIKSLNLSLKEITTKVCMSEKFCSTLRKKVNDIETQLPALLEAKMHAISGNHFWTAKDLTEEIRSLTSEREGLEGLLSKLLVLSSRNVKKLGSVKEDYNRLRREVEHQETAYETSVKENTMKYMETLKNKLCSCKCPLLGKVWEADLEACRLLIQSLQLQEARGSLSVEDERQMDDLEGAAPPIPPRLHSEDKRKTPLKVLEEWKTHLIPSLHCAGGEQKEESYILSAELGEKCEDIGKKLLYLEDQLHTAIHSHDEDLIQSLRRELQMVKETLQAMILQLQPAKEAGEREAAASCMTAGVHEAQA
binds: ^GFPMiro1 | ^GFPMiro2 | ^GFPTRAK1 (mouse) | ^GFPTRAK2 (mouse)
